Laboratory results reported in PubChem BioAssay AID686979 (National Center for Advancing Translational Sciences (NCATS), 2013).
Several values for one entry are separate records, joined by “and”; a condition that tells them apart may be missing. Equal values may be shown once. The campaign covered roughly 420,000 compounds. About 50,000 (12%) were called active. Inconclusive means that the source gave no clear call. Such entries were picked first, then a sample of the others. Calls follow the shape of the dose curve; as a rule, active = well fitted inhibition curve with a large enough effect; inconclusive = small, poorly fitted or top-dose-only effect; inactive = flat fitted curve, though single readings scatter. No potency is given beside an inconclusive call; the fits are too rough.

Test: qHTS for Inhibitors of human tyrosyl-DNA phosphodiesterase 1 (TDP1): qHTS in cells in presence of CPT; also: nearly all actives have a fitted effect of over 55% in size
Settings: chicken DT40 Tdp1-/-;hTDP1 cells + 20 nM CPT, ATP luminescence, 48 h; activity change, negative = growth inhibition: at 46.2 µM (top of the series) unless noted
Outline: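 Chicken DT40 Tdp1-/- cells complemented with human TDP1, 400 cells/well, exposed to compounds plus 20 nM camptothecin for at least 48 h at 37 C; viability read as ATP content by CellTiter-Glo luminescence.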
% is scaled to controls: 0 for no effect and ±100 for the full control effect; potency is read from the fitted curve at half-maximal effect; tags tell the direction and shape of the fitted curve.

Row | Structure (SMILES) | Potency | activity change, negative = growth inhibition
1 | COc1ccccc1N(CC(=O)Nc1cc(C)on1)S(=O)(=O)c1ccc(Cl)cc1 | active: 18.4 µM | 
2 | Cc1ccc2oc(C(=O)N3CCN(Cc4ncccc4C)CC3)c(C)c2c1 | inconclusive [inhibitor, single point] | 
3 | Cn1c(=O)cc(OCC(=O)N2CCN(c3ccccc3F)CC2)c2ccccc21 | inconclusive [inhibitor, single point] | 
4 | COc1ccc(C2N(Cc3ccccc3)CC(=O)N2/N=C(\C)c2ccccc2)cc1 (stereo unspecified) |  | inactive: -14.1%
5 | Cc1ccc(NC(=O)Cn2sc3ccccc3c2=O)cc1 | active: 4.61 µM | 
6 | Cc1cccc(NCc2nc(-c3ccccc3)no2)c1 | inconclusive [inhibitor, single point] | 
7 | NC(c1cccc(F)c1)c1nc(-c2ccc(Cl)cc2)cs1 (stereo unspecified) | inconclusive [inhibitor, single point] | 
8 | CCOc1ccc(CNC(=O)CN2C(=O)CSc3ccc(S(=O)(=O)N4CCOCC4)cc32)cc1OC | inactive | 
9 | COc1cc(C(O)c2nc(/C=C/c3ccccc3)cs2)ccc1F (stereo unspecified) | active: 18.4 µM | 
10 | O=C(NCCN1CCOCC1)C1CCC(CNS(=O)(=O)c2ccc(Cl)cc2)CC1 (stereo unspecified) | inconclusive [inhibitor, partial curve, poor fit] | 
11 | CCN1CNC(=S)N(c2cccc(C)c2C)C1 |  | inactive: -14.4%
12 | CN1C2C=C(N(CCc3c[nH]c4ccccc34)C(=O)c3ccc(Cl)cc3)CC1CC2 (stereo unspecified) | inconclusive [inhibitor, single point] | 
13 | COC(=O)c1sc(-c2ccc(C(C)(C)C)cc2)cc1NC(=O)COCC(=O)O |  | inactive: -3.19%
14 | COc1cccc(C(=O)Nc2nnc(-c3ccccc3)s2)c1OC | inconclusive [inhibitor, single point] | 
15 | Cc1cnc(NC(=O)Cc2ccccc2Cl)s1 | active: 3.26 µM | 
16 | COC(=O)C1=C(C)NC(C)=C(C(=O)OCCCN2CCC(c3ccccc3)(c3ccccc3)CC2)C1c1cccc([N+](=O)[O-])c1 (stereo unspecified) | active: 5.31 µM and active: 18.2 µM | 
17 | CCN1CCc2c(sc(NC(=O)CSc3ccccc3)c2-c2nc3ccccc3s2)C1 | inconclusive [inhibitor, single point] | 
18 | COc1ccc(-c2noc(-c3cc(C(C)C)[nH]n3)n2)cc1 | active: 20.6 µM | 
19 | Cc1cc(Nc2ccc(Br)c(C)c2)n2nc(C)nc2n1 | inconclusive [inhibitor, single point] | 
20 | O=c1cc[nH]c2cccc(Cc3ccccc3)c12 | inconclusive [inhibitor, single point] | 
21 | COC(=O)CSc1nc(NC(C)=O)nc(C)c1Br |  | inactive: -2.42%
22 | COc1ccc(-c2cnnn2-c2ccc(NC(=O)c3ccc(S(=O)(=O)N4CCCCC4)cc3)cc2)cc1OC | active: 20.6 µM | 
23 | CCC1=Nc2cc(C(=O)NCCCOC(C)C)ccc2Sc2ccc(C)cc21 | active: 0.92 µM | 
24 | Cc1noc(C)c1CSCC(=O)Nc1nc2ccccc2s1 | inconclusive [inhibitor, single point] | 

Row | Structure (SMILES) | Potency | activity change, negative = growth inhibition
25 | CCN(Cc1ccccc1)C(=O)CCc1nc(CN2CCN(C(=O)c3ccc([N+](=O)[O-])cc3)CC2)no1 | inconclusive [inhibitor, single point] | 
26 | O=C(NCc1ccc(Cl)cc1)C1(c2cccs2)CCOCC1 | inconclusive [inhibitor, single point] | 
27 | O=C1CC(C(=O)N2CCN(Cc3ccccc3)CC2)CN1Cc1ccccc1 (stereo unspecified) |  | inactive: -2.37%
28 | COc1ccc(NC(=O)CCCN2C(=O)CN(C)C2=O)c(OC)c1 | inconclusive [inhibitor, single point] | 
29 | O=C(/C=C/c1ccc(OC(F)F)cc1)OCC(=O)N1CCN(C(=O)c2ccco2)CC1 | inconclusive [inhibitor, single point] | 
30 | COc1ccc(-c2coc3c(C(=O)NCc4cccs4)cccc23)c(C)c1 | active: 23.1 µM | 
31 | O=C(NCCCN1CCCC1=O)c1ccc2c(c1)OCO2 | inconclusive [inhibitor, partial curve, poor fit] | 
32 | Cc1onc(-c2ccccc2)c1C(=O)NCC(=O)Nc1cc(Cl)ccc1Cl | inconclusive [inhibitor, single point] | 
33 | COc1cc2cnc(-c3ccccc3)c(-c3ccc(C(F)(F)F)cc3)c2cc1OC | inconclusive [inhibitor, single point] | 
34 | Cc1ccc(OCCSc2nc3ccccc3n2CC(=O)N2CCCCC2)cc1C | inconclusive [inhibitor, single point] | 
35 | CCC(=O)N1CCc2cc(Br)cc(S(=O)(=O)N3CCCCC3CC)c21 (stereo unspecified) | inconclusive [inhibitor, single point] | 
36 | Cc1ccc(CNC(=O)C2CCCN(c3nc4c(C)cc(C)cc4s3)C2)cc1 (stereo unspecified) |  | inactive: 0.652%
37 | O=C(CCC(=O)OCC(=O)c1ccccc1)NC1CCCCC1 |  | inactive: -12.1%
38 | CC(=O)c1cccc(Nc2cc(C)nc3nc(-c4ccccc4C)nn23)c1 | inconclusive [inhibitor, single point] | 
39 | CCN1CCN(CC(=O)Nc2cc(S(=O)(=O)N(CC)c3ccccc3)ccc2Cl)CC1 | inconclusive [inhibitor, single point] | 
40 | COc1ccc(/C=C(\C#N)C(=O)c2c(C)[nH]c3ccccc23)cc1OC | inconclusive [inhibitor, single point] | 
41 | O=C(CN(Cc1ccccc1)C(=O)CCC(=O)Nc1nccs1)NCc1ccc(F)cc1 |  | inactive: -0.588%
42 | O=C(COc1ccccc1)NCC(c1ccco1)N1CCN(c2ccccc2)CC1 (stereo unspecified) | inconclusive [inhibitor, single point] | 
43 | CC1(C(=O)NCCC(F)(F)F)Cc2c(-c3cccc(C(N)=O)c3)ccnc2O1 (stereo unspecified) | inconclusive [inhibitor, partial curve, poor fit] | 
44 | C=CCn1c(SCn2nnc3ccccc3c2=O)nnc1-c1ccc(Br)cc1 | inconclusive [inhibitor, single point] | 
45 | CCCCn1c(=N)n(CC(=O)C(C)(C)C)c2ccccc21 | active: 23.1 µM | 
46 | O=C(COc1ccccc1)NCCc1csc(-c2ccc(F)cc2)n1 | active: 14.6 µM | 
47 | N#Cc1ccc[n+](CC(=O)c2ccc(F)cc2)c1 | inconclusive [inhibitor, single point] | 
48 | CCN(c1ccccc1)S(=O)(=O)c1ccc(Oc2ccc([N+](=O)[O-])cc2)nc1 | inconclusive [inhibitor, single point] | 

Row | Structure (SMILES) | Potency | activity change, negative = growth inhibition
49 | CN1CCN(c2ncc3nc(-c4cn(C)c5ccccc45)c(=O)n(C[C@H]4CCCO4)c3n2)CC1 | active: 20.6 µM | 
50 | O=C(Nc1nc(-c2ccccn2)cs1)c1ccc(F)c(S(=O)(=O)N2CCOCC2)c1 | active: 1.46 µM | 
51 | C#Cc1ccc([C@H]2C=C(C(=O)N3CCN(Cc4ccc5c(c4)OCO5)CC3)O[C@@H](OCC)[C@@H]2CCCO)cc1 | inconclusive [inhibitor, single point] | 
52 | O=C(COC(=O)c1cccc(S(=O)(=O)N2CCc3ccccc32)c1)NCc1ccco1 |  | inactive: -5.4%
53 | COc1ccc(C(CNC(=O)c2ccc(S(=O)(=O)N(C)C)cc2)N2CCCCC2)cc1 (stereo unspecified) |  | inactive: 11.7%
54 | COC(=O)[C@@]12C[C@@H](CC(=O)N3CCCC3)C(=O)N(Cc3ccccc3)C1=CCC(C)(C)C2 | active: 23.1 µM | 
55 | O=C(Cn1cc(S(=O)(=O)Cc2cccc(Cl)c2)c2ccccc21)Nc1ccc(F)c(Cl)c1 | inconclusive [inhibitor, single point] | 
56 | CCN(CC(=O)NCc1ccc(Cl)cc1)C(=O)c1cc(OC)cc(OC)c1 |  | inactive: 0.973%
57 | COc1cc(/C=N/Nc2ccc(Cl)c(C(=O)O)c2)ccc1OCC(=O)N1C(C)CCCC1C (stereo unspecified) |  | inactive: 13.9%
58 | Cc1ccc(N2C(=O)CC(Sc3ncn[nH]3)C2=O)cc1C (stereo unspecified) | active: 4.61 µM | 
59 | CCOP(=O)(OCC)C(NC(=O)Nc1ccc(Cl)c(Cl)c1)C(N)=O (stereo unspecified) |  | inactive: 0.545%
60 | Cc1c(OC(C)C(=O)NCC2CCC(C(=O)O)CC2)ccc2c3c(c(=O)oc12)CCCC3 (stereo unspecified) |  | inactive: -20.4%
61 | O=C(CCCC(=O)N1CCN(c2cccc(Cl)c2)CC1)c1ccccc1 | active: 14.6 µM | 
62 | CCOc1ccc(NC(=O)CN2CCN(CC(=O)c3ccc(OC)c(OC)c3)CC2)cc1 | inconclusive [inhibitor, single point] | 
63 | CCCCCCCn1c(=N)n(CC(=O)c2ccco2)c2ccccc21 | active: 20.6 µM | 
64 | CCOc1cc2[nH]c(=S)n(Cc3ccc(C(=O)O)cc3)c(=O)c2cc1OCC |  | inactive: 9.65%
65 | Cc1cc(C)c2oc(=O)cc(CN3CCN(Cc4ccccc4)CC3)c2c1 | active: 18.4 µM | 
66 | COc1ccccc1CN(C(=O)Cc1cccs1)C(C(=O)NC1CCCC1)c1ccncc1 (stereo unspecified) | inconclusive [inhibitor, single point] | 
67 | O=C(Nc1ccc(Cl)cc1)N[C@@H]1CC[C@H](CCNS(=O)(=O)c2ccccc2F)O[C@@H]1CO | inconclusive [inhibitor, single point] | 
68 | COc1ccc(CCNC(=O)Cn2c(=O)n(-c3ccc(C)c(F)c3)c(=O)c3sccc32)cc1OC | active: 9.2 µM | 
69 | c1ccc(-c2noc(-c3ccncc3)n2)nc1 | inconclusive [inhibitor, single point] | 
70 | Cc1ccccc1Cc1c(C)nc2c(-c3ccccc3)c(C)[nH]n2c1=O | inconclusive [inhibitor, single point] | 
71 | S=C1SCCCN1Cc1ccc(Cl)cc1 | inconclusive [inhibitor, single point] | 
